About 14,000 (4.5%) of roughly 310,000 compounds showed an effect of 50% or more. Effects have a minus sign here. The list shows a part of the results.
target: human ether-à-go-go-related gene (hERG) potassium channel (human, UniProt Q12809); test: primary screen, population patch clamp on CHO cells stably expressing hERG
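Further: peak tail current of the secondary pulse compared with the same well before compound.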

human ether-à-go-go-related gene (hERG) potassium channel, sequence (Q12809 whole entry, looked up): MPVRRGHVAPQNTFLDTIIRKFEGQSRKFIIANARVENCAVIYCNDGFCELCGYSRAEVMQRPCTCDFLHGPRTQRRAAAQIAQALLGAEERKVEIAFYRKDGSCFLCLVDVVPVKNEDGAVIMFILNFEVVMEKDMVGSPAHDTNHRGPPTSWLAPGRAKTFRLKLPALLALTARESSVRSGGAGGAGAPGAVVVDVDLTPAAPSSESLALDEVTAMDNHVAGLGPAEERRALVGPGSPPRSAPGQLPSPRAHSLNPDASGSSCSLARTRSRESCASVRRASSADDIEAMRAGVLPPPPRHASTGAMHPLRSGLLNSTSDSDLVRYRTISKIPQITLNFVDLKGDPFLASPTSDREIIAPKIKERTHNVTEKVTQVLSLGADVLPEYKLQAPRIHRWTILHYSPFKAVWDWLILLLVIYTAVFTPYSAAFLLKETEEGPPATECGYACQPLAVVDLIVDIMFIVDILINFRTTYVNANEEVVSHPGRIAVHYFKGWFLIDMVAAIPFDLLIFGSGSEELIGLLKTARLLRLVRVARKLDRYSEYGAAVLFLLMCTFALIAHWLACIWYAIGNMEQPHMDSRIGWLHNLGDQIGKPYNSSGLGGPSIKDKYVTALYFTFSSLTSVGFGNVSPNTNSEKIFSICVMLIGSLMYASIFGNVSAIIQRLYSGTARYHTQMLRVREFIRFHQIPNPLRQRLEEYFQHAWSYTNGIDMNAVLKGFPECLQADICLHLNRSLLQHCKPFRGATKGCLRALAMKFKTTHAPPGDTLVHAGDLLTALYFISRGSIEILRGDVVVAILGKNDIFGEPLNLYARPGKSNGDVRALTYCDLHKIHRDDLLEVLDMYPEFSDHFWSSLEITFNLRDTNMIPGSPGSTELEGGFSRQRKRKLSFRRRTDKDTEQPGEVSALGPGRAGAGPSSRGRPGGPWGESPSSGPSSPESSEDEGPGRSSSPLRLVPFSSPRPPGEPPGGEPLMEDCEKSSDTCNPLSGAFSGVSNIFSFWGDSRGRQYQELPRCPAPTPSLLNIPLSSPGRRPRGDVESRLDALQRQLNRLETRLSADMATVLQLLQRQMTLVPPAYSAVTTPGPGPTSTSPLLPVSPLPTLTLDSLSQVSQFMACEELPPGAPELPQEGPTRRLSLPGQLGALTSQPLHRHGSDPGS

SMILES | hERG current change (%, negative = inhibition) at 10uM
O=C(Nc1ccc(Cl)cc1Cl)C1CCC(=O)N1Cc1ccccc1Cl (centres unmarked) | -2.67%
COc1ccccc1NC(=O)N(CCN1CCOCC1)Cc1cc2cc(C)cc(C)c2[nH]c1=O | -33.2%
CCOC(=O)C1CCN(Cc2ccc(OC)c(OCc3ccccc3)c2)CC1 | -38.3%
CCc1ccc(CCC(=O)Nc2ccccc2C(=O)O)o1 | 11%
Cc1cc(CN2CCCC(C(=O)Nc3ccc(-c4nc5ccccc5[nH]4)cc3)C2)n[nH]1 (centres unmarked) | -14.2%
COc1cccc(C(=O)Nc2cc(Cl)c(O)c(Cl)c2)c1 | -2.64%
CC1Cc2cc(S(=O)(=O)CCC(=O)N3CCN(c4ccccc4)CC3)ccc2N1C(=O)C1CC1 (centres unmarked) | -26.3%
COC(=O)c1cc(=O)c2c(C)nc(C(Cl)(Cl)Cl)nc2[nH]1 | -2.94%
C[n+]1ccn(CC(=O)c2ccc(Cl)cc2)c1.[Br-] | -3.61%
CN(CC(=O)Nc1ccc(S(=O)(=O)N2CCCC2)cc1)Cc1ccc(Cl)c(Cl)c1 | 0.187%
CCN(CC)CCNc1cc(C)c(C#N)c2nc3ccccc3n12 | -20.6%
CCOC(=O)C1CCN(C(=O)Nc2ccc(Cl)cc2)CC1 | -10.5%
O=C(CN1CCN(c2ccc(O)cc2)CC1)Nc1ccc(-c2ccccc2)cc1 | -5.1%
CC1=NN(CCc2ccccn2)C(=O)CC1 | 15.6%
COC(=O)C1=C(c2cc3ccccc3s2)C[C@@H]2CC[C@H]1N2C(=O)NCc1ccco1 | -20.8%
Cc1cc(C)c(S(=O)(=O)N2CCCOC2CNC(=O)C(=O)NCc2ccncc2)c(C)c1 (centres unmarked) | -1.48%
Cn1cnc2cc(NCc3ccccc3O)ccc21 | 6.3%
O=C(CN1CCN(c2ccccc2O)CC1)NC(c1ccccc1)c1ccccc1 | -22.7%
COc1ccc(NC(=O)CNS(=O)(=O)c2ccc3nc(C)sc3c2)c(OC)c1 | -8.28%
C=CCN1C(=O)C(CC(=O)O)SC1=Nc1ccc(C(=O)O)cc1 (centres unmarked) | 20.9%
CC(=O)Cc1cc(=O)c2c(C)cc(O)c(C3OC(CO)C(O)C(O)C3O)c2o1 (centres unmarked) | 5.85%
CCc1ccc(N(C(=O)CCC(=O)Nc2cc(C)on2)C(C(=O)NC(C)(C)C)c2ccc(OC)cc2)cc1 (centres unmarked) | -8.1%

SMILES | hERG current change (%, negative = inhibition) at 10uM
Cc1ccccc1NC(=O)CN1C(=O)NC2(CCc3ccccc32)C1=O (centres unmarked) | 5.57%
CC(=O)Nc1ccc(/C=C2\Sc3ccccc3C2=O)cc1 | 2.33%
C=CCNC(=O)/C(C#N)=C/c1c(N2CCN(c3cccc(Cl)c3)CC2)nc2c(C)cccn2c1=O | 17.1%
Cc1cc(C)n(CC(=O)N2CCc3ccccc32)c(=O)c1C#N | 20.7%
O=C(c1ccc(S(=O)(=O)N2CCCCC2)cc1)N1CCN(CCN2C(=O)c3cccc4cccc(c34)C2=O)CC1 | 26%
N#Cc1ccc(-c2c(-c3ccccc3)ncc3cc(F)ccc23)cc1 | 7.11%
N#Cc1cccc2cccc(S(=O)(=O)N3CCOCC3)c12 | -3.63%
Cc1ccccc1CNC(=O)Cn1ccc2cc(S(=O)(=O)N3CCCCCC3)ccc21 | 19%
Cn1c(COc2ccc3ccccc3c2)nnc1SCC(=O)O | 8.77%
O=C(NCCCn1cccn1)c1cc(COc2ccc(F)cc2Cl)on1 | -43.8%
CC1CCCCN1C(=O)CN1CCC(c2nc3ccc(Cl)cc3[nH]2)CC1 (centres unmarked) | -60.2%
S=C(Nc1ccc(Br)cc1)Nc1ccc2c(c1)OCCO2 | 20.5%
CC(C)Cc1nc2n[nH]c(N)c2c2c1CCCC2 | 1.39%
CCCc1cc(O)c2c(C)cc(=O)oc2c1 | 6.51%
O=C(O)CSC(NC(=O)c1cccnc1)(C(F)(F)F)C(F)(F)F | 6.73%
CC[C@H](C)[C@@H](C(=O)NCCCCCCCCCCC(=O)N1CCN(C(=O)OC(C)(C)C)CC1)n1cc(CCCCN=C(NC(=O)OC(C)(C)C)NC(=O)OC(C)(C)C)nn1 | 2.47%
CCN(CC)c1ccc(/C=C(\C#N)C(=O)NCc2ccccc2)cc1 | -6.8%
COC(=O)c1ccccc1NC(=O)CN1CCc2ccccc2C1 | -8.92%
CCC(=O)Nc1nc2ccccc2n1CCN1CCOCC1 | 16.2%
CCN(CC)CCCN(C(=O)c1ccco1)c1nc(-c2ccc(Cl)cc2)cs1.Cl | -71.2%
COC(=O)c1ccc(CSCC(=O)Nc2cc(OC)cc(OC)c2)o1 | 3.05%
O=C(/C=C/c1cccc([N+](=O)[O-])c1)NCc1ccco1 | -33%

Source: paper PMC4336329 (PLoS ONE, 2015)
